Data on 44 compounds can be found in paper PMC4336329 (PLoS ONE, 2015).

Hit rate of the full screen: of about 310,000 compounds, about 2,200 (0.71%) showed an effect of 50% or more. Effects have a minus sign here. The list shows a part of the results.

The experiment deals with human ether-à-go-go-related gene (hERG) potassium channel (human, UniProt Q12809). Briefly: primary screen, population patch clamp on CHO cells stably expressing hERG.
human ether-à-go-go-related gene (hERG) potassium channel, sequence (Q12809 whole entry, looked up): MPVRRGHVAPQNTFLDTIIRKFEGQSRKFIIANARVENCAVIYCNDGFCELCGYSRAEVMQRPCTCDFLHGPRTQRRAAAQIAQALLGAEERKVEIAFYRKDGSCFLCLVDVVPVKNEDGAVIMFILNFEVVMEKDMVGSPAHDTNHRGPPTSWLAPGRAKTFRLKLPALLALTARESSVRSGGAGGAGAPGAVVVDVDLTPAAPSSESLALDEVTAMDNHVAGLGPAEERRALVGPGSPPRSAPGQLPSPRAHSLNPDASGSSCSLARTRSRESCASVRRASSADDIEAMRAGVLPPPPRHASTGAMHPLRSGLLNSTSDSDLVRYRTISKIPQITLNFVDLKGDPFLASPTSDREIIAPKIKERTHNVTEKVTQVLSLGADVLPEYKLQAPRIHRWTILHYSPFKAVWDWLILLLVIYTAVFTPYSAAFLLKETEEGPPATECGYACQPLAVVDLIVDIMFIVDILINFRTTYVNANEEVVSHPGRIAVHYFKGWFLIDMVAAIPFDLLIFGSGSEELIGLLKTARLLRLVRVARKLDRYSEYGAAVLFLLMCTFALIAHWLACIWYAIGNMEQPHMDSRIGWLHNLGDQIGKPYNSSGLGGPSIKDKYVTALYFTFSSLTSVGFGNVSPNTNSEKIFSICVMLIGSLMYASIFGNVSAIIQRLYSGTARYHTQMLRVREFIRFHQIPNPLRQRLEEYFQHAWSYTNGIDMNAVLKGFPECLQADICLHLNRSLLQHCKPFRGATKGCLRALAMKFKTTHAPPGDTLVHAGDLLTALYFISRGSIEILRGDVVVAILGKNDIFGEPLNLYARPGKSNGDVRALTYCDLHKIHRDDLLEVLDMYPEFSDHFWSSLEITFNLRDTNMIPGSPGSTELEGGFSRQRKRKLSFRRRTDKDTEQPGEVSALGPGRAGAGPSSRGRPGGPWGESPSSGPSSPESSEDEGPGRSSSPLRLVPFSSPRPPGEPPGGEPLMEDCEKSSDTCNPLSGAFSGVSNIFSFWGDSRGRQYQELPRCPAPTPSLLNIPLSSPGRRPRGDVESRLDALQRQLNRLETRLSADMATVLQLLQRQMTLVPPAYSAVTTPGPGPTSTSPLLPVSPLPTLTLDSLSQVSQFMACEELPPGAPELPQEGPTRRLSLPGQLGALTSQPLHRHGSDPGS
As for `CCCc1cc(C(=O)OC)c(NC(=O)CCC(=O)O)s1`, the “hERG current change (%, negative = inhibition) at 1uM” value is recorded as 10.3%. Under `CNC(=S)N(C)/N=C1/C(=O)N(Cc2c(Cl)cccc2Cl)c2ccccc21` stands 10.9%; under `CCOc1ccc(C(=O)NCC(=O)NCC2CCCCC2)cc1OCC`, 13.9%. In the case of `COc1ccc(Cn2cnc3sccc3c2=O)cc1` it was 0.544%. For `CCCOc1ccc(/C=N/NC(=O)c2nnn(-c3nonc3N)c2-c2cccs2)cc1OC`, the “hERG current change (%, negative = inhibition) at 1uM” value is -2.55%. As to `COc1ccc(C(=O)COc2ccccc2C(N)=O)cc1`, the “hERG current change (%, negative = inhibition) at 1uM” value is 8.47%. Turning to `CCN1CCN(c2sc(S(C)(=O)=O)nc2S(=O)(=O)c2ccc(Cl)cc2)CC1`, the “hERG current change (%, negative = inhibition) at 1uM” value is -19.1%. On to `COc1ccc(C(=O)N2CCN(c3ncccn3)CC2)cc1S(=O)(=O)N1CCOCC1`, for which the “hERG current change (%, negative = inhibition) at 1uM” value was determined as 11%.

`CCc1ccc(CN(C(=O)c2cc3ccccc3oc2=O)C2CCS(=O)(=O)C2)cc1` (centres unmarked): the “hERG current change (%, negative = inhibition) at 1uM” value turned out to be 3.71%. Under `Oc1c(Cl)cc(Cl)cc1C=Nc1ccc(N2CCOCC2)cc1` stands 9.19%. Under `COc1cc(CN2CCN(C(=O)Cc3ccccc3)CC2)cc(OC)c1OC.O=C(O)C(=O)O` stands 5.81%; under `CC(OC(=O)c1cccc(S(=O)(=O)Nc2ccccc2F)c1)C(=O)NCc1ccc2c(c1)OCO2` (centres unmarked), 6.09%; under `CNC(=O)COC(=O)CNC(=O)c1cc(Cl)cc([N+](=O)[O-])c1`, 16.6%. Turning to `O=C(NC1CCCC1)C(NS(=O)(=O)c1ccc(Br)s1)c1ccccc1` (centres unmarked), the “hERG current change (%, negative = inhibition) at 1uM” value was 13.1%. Consider `Cc1cccc2cc(CN(CCc3ccccc3)C(=O)N3CCOCC3)c3nnnn3c12`, for which the “hERG current change (%, negative = inhibition) at 1uM” value was found to be 12.5%.

As to `CC(=O)Nc1ccc2nc(CN3CCC(CO)(CCc4ccccc4)CC3)ccc2c1`, the “hERG current change (%, negative = inhibition) at 1uM” value is given as -17.5%. Turning to `CCOCCOC(=O)C1=C(C)N(C)C(=O)NC1c1cc(Cl)c(O)c(OCC)c1` (centres unmarked), the “hERG current change (%, negative = inhibition) at 1uM” value came out at 2.72%. In the case of `CC(C)c1ccc(/C=C/C(=O)NCc2ccc(S(N)(=O)=O)cc2)cc1` it was 13%; in that of `Cn1c(CC(=O)Nc2ccccc2F)nnc1SCC(=O)Nc1ccccc1Br`, 9.15%. Regarding `O=C(CCC(=O)N1CCCC1)Nc1ccc(Cl)c(Cl)c1`, the “hERG current change (%, negative = inhibition) at 1uM” value was 9.55%.

For the compound `Cc1nnc(NC(=O)CSc2n[nH]c(-c3ccccc3C)n2)s1`, the “hERG current change (%, negative = inhibition) at 1uM” value was determined as 1.88%.

Consider `CN(C)c1ccc(C(=S)Nc2ccccc2)cc1`, for which the “hERG current change (%, negative = inhibition) at 1uM” value is recorded as 9.74%. Under `O=C(Nc1c2c(nn1-c1ccc(F)cc1)CS(=O)(=O)C2)c1ccc(Br)o1` stands 3.78%; under `Cc1ccc(-c2ccnc3cc(C)nn23)cc1`, 8.81%; under `CN(CCOc1ccccc1)C(=O)c1cc(S(=O)(=O)N2CCOCC2)ccc1Cl`, -10.5%. As for `COc1ccccc1-n1c(SCC(=O)Nc2cccc(C(=O)O)c2)nnc1-c1ccccc1O`, the “hERG current change (%, negative = inhibition) at 1uM” value is 8.32%. As to `CCN(CC)C(=O)CSc1nnc(-c2ccccc2)o1`, the “hERG current change (%, negative = inhibition) at 1uM” value is listed as 11.1%.

Turning to `Cl.NCCCCCc1nnc(SCc2cccc(Cl)c2)o1`, the “hERG current change (%, negative = inhibition) at 1uM” value is 0.918%. In the case of `COc1ccc(NC(=S)N2CCN(C(=O)c3ccco3)CC2)c(OC)c1` it was 8.24%; in that of `CC1Cc2ccccc2N1C(=O)CNc1cccc(S(=O)(=O)N2CCCC2)c1` (centres unmarked), 14.1%.

As to `O=C(NCc1ccccc1)C12CC3CC(CC(Cl)(C3)C1)C2`, the “hERG current change (%, negative = inhibition) at 1uM” value is listed as 7.85%. Under `c1ccc(-c2nc(-c3ccco3)cs2)nc1` stands 3.45%. With `CC(C)=CC(=O)Nc1c(C)cc(C)cc1Cl`, the “hERG current change (%, negative = inhibition) at 1uM” value is reported as 13.2%. Under `O=C(COc1ccc(-c2ccccc2)cc1)N1CCCC1` stands -1.68%; under `Cc1ccc(S(=O)(=O)N2CCOCC2)cc1NC(=O)COC(=O)CNC(=O)c1ccccc1`, 12.8%.

In the case of `CSc1nnc(-c2cc(-c3ccc(C)cc3)nc3ccccc23)o1`, the “hERG current change (%, negative = inhibition) at 1uM” value was found to be 2.83%. Consider `O=C(Oc1cccc2c(O)cccc12)c1ccccc1`, for which the “hERG current change (%, negative = inhibition) at 1uM” value came to 11.4%.

For `CC1(C)CC(=O)c2cnc(NC(=O)CSC(=S)N3CCCCC3)nc2C1`, the “hERG current change (%, negative = inhibition) at 1uM” value is on record as -4.01%. In the case of `COc1ccccc1/C=C(/NC(=O)c1ccc(Cl)cc1Cl)C(=O)O` it was 16.5%; in that of `CCOc1ccc(C(=O)Nc2ccc3c(c2)OCCO3)cc1OC`, -3.07%. As to `COc1ccccc1C(=O)/C=C/c1ccc(N2CCCCC2)c([N+](=O)[O-])c1`, the “hERG current change (%, negative = inhibition) at 1uM” value is on record as 4.86%. Under `Cc1nnc(SCCn2c(Br)nc3c2c(=O)[nH]c(=O)n3C)s1` stands 17.2%; under `Cl.O=C(NC(=S)N1CCN(Cc2ccccc2)CC1)c1ccco1`, 6.12%; under `COC(=O)c1ccc(NC(=O)C2CC(=O)N(c3cc(C)ccc3C)C2)cc1` (centres unmarked), 12.2%.
